This is one part of the list. Sequences were assembled here from the parent chain. Values near 0.05 are background.
B1: TEV protease; numbered along this chain (parent)
chain: MGESLFKGPRDYNPISSSICHLTNESDGHTTSLYGIGFGPFIITNKHLFRRNNGTLVVQSLHGVFKVKDTTTLQQHLVDGRDMIIIRMPKDFPPFPQKLKFREPQREERICLVTTNFQTKSMSSMVSDTSCTFPSGDGIFWKHWIQTKDGQCGSPLVSTRDGFIVGIHSASNFTNTNNYFTSVPKNFMELLTNQEAQQWVSGWRLNADSVLWGGHKVFMVKPEEPFQPVKEATQL

Variants of: B1
Experiment: raw area under fraction-flipped curve 0-4 h after induction (AUC4h, not background-subtracted), DNA-recorder readout of cleavage of the substrate (dimensionless); higher = more cleavage of the substrate by the protease variant
Settings: temperature: 34 °C; time window: 0-4 h after rhamnose induction
Description: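 In vivo DNA recorder in E. coli TOP10(DE3) ΔrhaA at 34 °C. Each TEVp single-site mutant (parent TEVp 0) is paired with a single-site variant of the 7-mer TEVs (canonical ENLYFQ|S). The substrate sits between flexible linkers in a Bxb1-sfGFP-TEVs-SsrA fusion, so cleavage stabilises Bxb1 and speeds flipping of a recombination array, read by NGS. The value is the raw area under the fraction-flipped curve over 0-4 h after rhamnose induction (AUC4h), with ≥20 reads per time point. It is not background-subtracted; inactive controls average about 0.047.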
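Also: Bxb1 expression induced with 0.2% (w/v) L-rhamnose at OD600 near 0.5, cultures sampled hourly, flipped fraction per protease–substrate barcode pair counted by paired-end Illumina sequencing.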

Variant	area with substrate ENLYFQA	area with substrate ENLYFQD	area with substrate ENLYFQI	area with substrate ENLYFQK	area with substrate ENLYFQL	area with substrate ENLYFQM	area with substrate ENLYFQN	area with substrate ENLYFQR	area with substrate ENLYFQS	area with substrate ENLYFQT	area with substrate ENLYFQV	area with substrate ENLYFQC	area with substrate ENLYFQG	area with substrate ENLYFQQ	area with substrate ENLYFQY	area with substrate ENLYFQP	area with substrate ENLYFQW	area with substrate ENLYFQH	area with substrate ENLYFQE	area with substrate ENLYFQF
MGESLFKGPRDYNPISSSICHLTNESDGHTTSLYGIGFGPFIITNKHLFRRNNGTLVVQSLHGVFKVKDTTTLQQHLVDGRDMIIIRMPKDFPPFPQKLKFREPQREERICLVTTNFQTKSMSSMVSDTSCTFPSGDGIFWKHWIQTKDGQCGSPLVSTRDGFIVGIHSASNFTNTNNYFTSVPKNFMELLTNQEAQQWVSGWRLSADSVLWGGHKVFMVKPEEPFQPVKEATQL [N206S]	0.102	0.0926	0.0621	0.0644	0.0654	0.0932	0.0781	0.0625	0.109	0.0619	0.0561	–	–	–	–	–	–	–	–	–
MGESLFKGPRDYNPISSSICHLTNESDGHTTSLYGIGFGPFIITNKHLFRRNNGTLVVQSLHGVFKVKDTTTLQQHLVDGRDMIIIRMPKDFPPFPQKLKFREPQREERICLVTTNFQTKSMSSMVSDTSCTFPSGDGIFWKHWIQTKDGQCGSPLVSTRDGFIVGIHSASNFTNTNNYFTSVPKNFMELLTNQEAQQWVSGWRLNNDSVLWGGHKVFMVKPEEPFQPVKEATQL [A207N]	0.055	–	0.0412	–	0.059	0.0732	0.0801	0.0636	0.102	0.055	–	0.0977	0.102	0.0809	0.0644	–	–	–	–	–
MGESLFKGPRDYNPISSSICHLTNESDGHTTSLYGIGFGPFIITNKHLFRRNNGTLVVQSLHGVFKVKDTTTLQQHLVDGRDMIIIRMPKDFPPFPQKLKFREPQREERICLVTTNFQTKSMSSMVSDTSCTFPSGDGIFWKHWIQTKDGQCGSPLVSTRDGFIVGIHSASNFTNTNNYFTSVPKNFMELLTNQEAQQWVSGWRLNADSCLWGGHKVFMVKPEEPFQPVKEATQL [V210C]	0.103	0.0617	0.0644	0.063	0.0584	0.0767	0.0701	0.0652	0.103	0.0608	0.0511	0.106	–	0.0606	–	0.0479	0.067	–	–	–
MGESLFKGPRDYNPISSSICHLTNESDGHTTSLYGIGFGPFIITNKHLFRRNNGTLVVQSLHGVFKVKDTTTLQQHLVDGRDMIIIRMPKDFPPFPQKLKFREPQREERICLVTTNFQTKSMSSMVSDTSCTFPSGDGIFWKHWIQTKDGQCGSPLVSTRDGFIVGIHSASNFTNTNNYFTSVPKNFMELLTNQEAQQWVSGWRLNADSQLWGGHKVFMVKPEEPFQPVKEATQL [V210Q]	0.0948	0.0463	0.0423	0.0583	0.0587	0.0651	0.063	0.0566	0.0948	0.0691	–	0.0972	0.0807	0.0683	0.0469	0.0543	0.0723	0.0736	–	–
MGESLFKGPRDYNPISSSICHLTNESDGHTTSLYGIGFGPFIITNKHLFRRNNGTLVVQSLHGVFKVKDTTTLQQHLVDGRDMIIIRMPKDFPPFPQKLKFREPQREERICLVTTNFQTKSMSSMVSDTSCTFPSGDGIFWKHWIQTKDGQCGSPLVSTRDGFIVGIHSASNFTNTNNYFTSVPKNFMELLTNQEAQQWVSGWRLNADSSLWGGHKVFMVKPEEPFQPVKEATQL [V210S]	0.0764	0.0616	–	0.0635	0.0453	–	0.063	–	0.0932	0.0542	0.0883	0.0976	–	0.0607	0.0523	0.0672	0.0527	0.0571	0.0557	–
MGESLFKGPRDYNPISSSICHLTNESDGHTTSLYGIGFGPFIITNKHLFRRNNGTLVVQSLHGVFKVKDTTTLQQHLVDGRDMIIIRMPKDFPPFPQKLKFREPQREERICLVTTNFQTKSMSSMVSDTSCTFPSGDGIFWKHWIQTKDGQCGSPLVSTRDGFIVGIHSASNFTNTNNYFTSVPKNFMELLTNQEAQQWVSGWRLNADSVLWGYHKVFMVKPEEPFQPVKEATQL [G214Y]	0.0723	0.0551	0.0601	–	0.0583	–	0.0486	0.0465	0.0737	–	–	0.063	0.0709	–	–	–	–	–	–	0.0871
MGESLFKGPRDYNPISSSICHLTNESDGHTTSLYGIGFGPFIITNKHLFRRNNGTLVVQSLHGVFKVKDTTTLQQHLVDGRDMIIIRMPKDFPPFPQKLKFREPQREERICLVTTNFQTKSMSSMVSDTSCTFPSGDGIFWKHWIQTKDGQCGSPLVSTRDGFIVGIHSASNFTNTNNYFTSVPKNFMELLTNQEAQQWVSGWRLNADSVLWGGHKDFMVKPEEPFQPVKEATQL [V217D]	0.0632	–	–	0.0618	0.0621	0.0576	0.0653	0.0697	0.0586	–	–	0.0585	0.0589	–	0.0546	–	–	0.0608	–	–
MGESLFKGPRDYNPISSSICHLTNESDGHTTSLYGIGFGPFIITNKHLFRRNNGTLVVQSLHGVFKVKDTTTLQQHLVDGRDMIIIRMPKDFPPFPQKLKFREPQREERICLVTTNFQTKSMSSMVSDTSCTFPSGDGIFWKHWIQTKDGQCGSPLVSTRDGFIVGIHSASNFTNTNNYFTSVPKNFMELLTNQEAQQWVSGWRLNADSVLWGGHKVFGVKPEEPFQPVKEATQL [M219G]	0.0753	–	0.0568	0.0619	0.0566	0.0762	0.0461	0.0573	0.0828	0.0668	0.0573	0.0888	0.0639	–	–	0.0588	0.0547	0.0604	–	–
MGESLFKGPRDYNPISSSICHLTNESDGHTTSLYGIGFGPFIITNKHLFRRNNGTLVVQSLHGVFKVKDTTTLQQHLVDGRDMIIIRMPKDFPPFPQKLKFREPQREERICLVTTNFQTKSMSSMVSDTSCTFPSGDGIFWKHWIQTKDGQCGSPLVSTRDGFIVGIHSASNFTNTNNYFTSVPKNFMELLTNQEAQQWVSGWRLNADSVLWGGHKVFIVKPEEPFQPVKEATQL [M219I]	0.0846	0.0685	0.0525	0.0459	0.0551	–	–	0.0589	0.0993	0.0501	–	0.111	–	–	0.0693	0.0791	0.0764	–	–	–
MGESLFKGPRDYNPISSSICHLTNESDGHTTSLYGIGFGPFIITNKHLFRRNNGTLVVQSLHGVFKVKDTTTLQQHLVDGRDMIIIRMPKDFPPFPQKLKFREPQREERICLVTTNFQTKSMSSMVSDTSCTFPSGDGIFWKHWIQTKDGQCGSPLVSTRDGFIVGIHSASNFTNTNNYFTSVPKNFMELLTNQEAQQWVSGWRLNADSVLWGGHKVFYVKPEEPFQPVKEATQL [M219Y]	0.0973	–	0.0498	–	0.058	0.0939	–	–	0.111	0.0491	0.0582	0.116	–	–	–	–	–	–	–	–

— the supplement of paper PMC12217912
